In PMC13083723 (Patterns, 2026) one finds result_ITMP data, which are given here for 55 compounds.

Screen size: about 5,400 compounds; about 190 (3.5%) showed an effect of 50% or more. The list shows a part of the results.

This test concerns Vero-E6. The experiment in a line: primary screen, phospholipidosis by LipidTOX staining; higher = more effect of the substance. Conditions: 10 µM. Summed up:
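Drug-induced phospholipidosis detected with HCS LipidTOX Red reagent in Vero-E6 cells. Compounds tested at 10 μM, with amiodarone (10 μM) as positive control and DMSO (0.1 v/v %) as vehicle.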
`S=C(NC1CCCCC1)N1CCC(c2c[nH]cn2)CC1`: the result_ITMP worked out at 1.61%.

Regarding `CCCCOc1cc(CC2CNC(=O)N2)ccc1OC` (stereo not shown), the result_ITMP was -1.11%.

On to `O=C1NC(=O)/C(=C/c2ccc3c(c2)OC(F)(F)O3)S1`, for which the result_ITMP amounted to 21.7%.

With `CC[C@H]1[C@@H](O)[C@@H]2[C@H](CC[C@]3(C)[C@@H]([C@H](C)CCC(=O)O)CC[C@@H]23)[C@@]2(C)CC[C@@H](O)C[C@@H]12`, the result_ITMP was -0.78%. `COc1cc([C@@H]2c3cc4c(cc3[C@@H](O[C@@H]3O[C@@H]5CO[C@@H](c6cccs6)O[C@H]5[C@H](O)[C@H]3O)[C@H]3COC(=O)[C@H]23)OCO4)cc(OC)c1O`: the result_ITMP was -0.84%.

Regarding `O=C(O)c1c(Sc2ccccc2)c2cc(Cl)ccc2n1Cc1ccc(Cl)cc1`, the result_ITMP is on record as -2.03%. Turning to `c1cncc(CN2CCC(n3ncc4c(N5CCOCC5)nc(-c5ccc6[nH]ccc6c5)nc43)CC2)c1`, the result_ITMP amounted to 4.24%. With `COC1CCN(C(=O)c2cc(Cc3n[nH]c(=O)c4ccccc34)ccc2F)CC1`, the result_ITMP is given as 2.83%. Consider `CCOC(=O)OC(C)OC(=O)C1N2C(=O)C(NC(=O)[C@H](N)c3ccccc3)C2SC1(C)C` (stereo partly shown), for which the result_ITMP is on record as -2.51%.

In the case of `Clc1cccc(Cl)c1CSc1nnc(-c2cnccn2)s1`, the result_ITMP is -6.45%. Turning to `C#C[C@]1(O)CCC2C3CCc4cc(O)ccc4C3CC[C@@]21C` (stereo partly shown), the result_ITMP is -0.56%. To `O=C(CN1CCNCC1)NC1CCCCC1` belongs -1.25%; to `O=C(/C=C/c1cccnc1)c1ccncc1`, -2.24%. To `C[C@@]12C(=O)OC(=O)[C@]1(C)[C@H]1CC[C@@H]2O1` belongs 7.41%. For the compound `CNCCN(C)Cc1c[nH]nc1-c1ccc(O[C@H]2C[C@H](OCCC3CCOCC3)C2)cc1`, the result_ITMP is -0.71%. As for `O=C1COc2c(CCNCCN(C(=O)CCNCCc3ccc(Cl)c(Cl)c3)C3CCCCC3)ccc(O)c2N1`, the result_ITMP is -0.19%. Regarding `C[N+](C)(C)[C@@H](Cc1c[nH]c(=S)[nH]1)C(=O)[O-]`, the result_ITMP is reported as -5.73%.

Regarding `CC1(C)CCC(C)(C)c2cc(C#Cc3ccc(C(=O)O)cc3)ccc21`, the result_ITMP is on record as -1.28%. To `N[C@@]1(C(=O)O)CC[C@H](C(=O)O)C1.N[C@]1(C(=O)O)CC[C@@H](C(=O)O)C1` belongs -0.35%; to `Cn1cc(-c2ccncc2)c(-c2ccc(OCc3ccc4ccccc4n3)cc2)n1`, 10.3%. On to `O=C(O)[C@H]1O[C@@H](Oc2cc3oc(-c4ccccc4)cc(=O)c3c(O)c2O)[C@H](O)[C@@H](O)[C@@H]1O`, for which the result_ITMP is reported as -8.18%.

As for `CCN1CCC(n2cc(CNc3cc(Cl)c4ncc(C#N)c(Nc5ccc(F)c(Cl)c5)c4c3)nn2)CC1`, the result_ITMP is on record as 9.34%. As to `C=C1C(=O)O[C@H]2[C@H]1CC/C(C)=C/CC[C@@]1(C)O[C@@H]21` [R4A_0002204_002 / SPE_K98548675], the result_ITMP came out at 4.35%.

For `O=c1[nH]c(=O)c2ccccc2o1`, the result_ITMP is -0.99%. The result for `O=S1(=O)c2cccc3cccc(c23)N1CCCN1CCN(c2ccc(F)cc2)CC1` reads 0.28%. Take `Nc1ncnc2c1ncn2C1CCCO1` (stereo not shown): the result_ITMP is reported as -2.16%.

Regarding `Cc1cc(C)c(S(=O)(=O)n2cc(C)cc2C)c(C)c1`, the result_ITMP was -10.5%.

As for `Cc1[nH]c2ccccc2c1CCNCc1ccc(/C=C/C(=O)NO)cc1`, the result_ITMP is -0.03%. The result for `Cc1ncc(Cl)cc1NCc1ccc(C(=O)N[C@@H](CC2CCCC2)C(=O)NC2CC2)s1` reads -2.09%; that for `C=CC(C)(C)c1cc(/C=C/C(=O)c2ccc(O)cc2)c(OC)cc1O`, -6.16%; that for `O=C(O)c1ccccc1Nc1ccc(CCc2ccc(Cl)c(Cl)c2)cc1`, -7.3%. To `O=C(c1cc2ccccc2o1)N1CCN(Cc2ccccc2)CC1` belongs 1.62%; to `C[C@]12CC[C@@H]3c4ccc(OS(=O)(=O)O)cc4CC[C@H]3[C@@H]1CCC2=O`, 10.8%; to `Cc1ccc(C(=O)Nc2ccc(S(=O)(=O)[O-])c3cc(S(=O)(=O)[O-])cc(S(=O)(=O)[O-])c23)cc1NC(=O)c1cccc(NC(=O)Nc2cccc(C(=O)Nc3cc(C(=O)Nc4ccc(S(=O)(=O)[O-])c5cc(S(=O)(=O)[O-])cc(S(=O)(=O)[O-])c45)ccc3C)c2)c1`, -3.34%. The result for `Cc1ccc(S(=O)(=O)NC(=O)NN2CCCCCC2)cc1` reads -4.53%; that for `COc1cc2c(CCNC(C)=O)c[nH]c2cc1Cl`, -2.44%. For `Cn1cccc1/C=C1\C(=O)NC(=O)c2ccccc21`, the result_ITMP is -1.64%.

In the case of `CCC(=O)OC(Cc1ccccc1)(c1ccccc1)C(C)CN(C)C` (stereo not shown), the result_ITMP came to 15%. To `N=C(N)NCCCC(NC(=O)C1CCCN1C(=O)C1CSSCCC(=O)NC(Cc2ccc(O)cc2)C(=O)NC(Cc2ccccc2)C(=O)NC(CCC(N)=O)C(=O)NC(CC(N)=O)C(=O)N1)C(=O)NCC(N)=O` (stereo not shown) belongs 3.95%; to `CN1CCN(c2c(F)cc3c(=O)c(C(=O)O)cn4c3c2OCN4C)CC1`, 2.58%; to `CC(C)(C)CC(C)(C)c1ccc(O)c(Cc2ccc(Cl)cc2Cl)c1`, -7.19%. To `O=C([O-])c1ccccc1-c1c2cc(I)c(=O)c(I)c-2oc2c(I)c([O-])c(I)cc12` belongs 7.91%; to `CC1(C)[C@@H]2CC[C@@]1(C)C(=O)C2` [R4A_0000828_001 / SPE_K10034334], -2.3%; to `NCCc1c[nH]c2ccc(C(N)=O)cc12`, 1.09%.

For `c1ccc(Oc2cccnc2)cc1`, the result_ITMP was determined as 13%.

On to `CCOC(=O)c1ccc(N)cc1`, for which the result_ITMP was -4.72%. Take `CCCCCCCCCCCCc1ccc(S(=O)(=O)Nc2nncs2)cc1`: the result_ITMP is listed as -1.38%.

As for `CC1c2ccccc2CN1CC1=NCCN1` (stereo not shown), the result_ITMP is given as -2.66%. Consider `OC(CCCN1CCCCC1)(c1ccccc1)c1ccccc1`, for which the result_ITMP was 16.2%. On to `CCN(CC)CCOC(=O)C(c1ccccc1)c1ccccc1`, for which the result_ITMP is given as 3.73%. On to `Nc1nc(NC2CC2)c2ncn([C@H]3C=C[C@@H](CO)C3)c2n1`, for which the result_ITMP is on record as -2.62%. Regarding `Nc1cc(F)ccc1NC(=O)/C=C/c1cnn(C/C=C/c2ccccc2)c1`, the result_ITMP is 3.65%. The result for `COc1cccc(CN(C(=O)CC(C)(C)C)[C@H]2C[C@@H](C(=O)N3CCNCC3)N(Cc3ccc4c(c3)OCO4)C2)c1` reads 37.3%. The result for `CCOc1ccc2nc3cc(N)ccc3c(N)c2c1` reads -10.8%; that for `CCN(CC)CCNc1ccc(CO)c2sc3ccccc3c(=O)c12`, 43.4%.
